Publication PMC6919601, “Identification of Plasmodium dipeptidyl aminopeptidase allosteric inhibitors by high throughput screening” (PLoS ONE, 2019)
Hit rate of the full screen: of about 110,000 compounds, about 230 (0.21%) showed an effect of 50% or more. The list shows a part of the results.

molecular target: DPAP1 (Plasmodium falciparum, UniProt Q8IIJ9); test: primary screen, percent inhibition; read by cleavage of a fluorogenic dipeptide substrate; higher = more effect of the substance; design: species or system P. falciparum D10 trophozoite lysates; single well
Sequence (Q8IIJ9 whole entry, looked up): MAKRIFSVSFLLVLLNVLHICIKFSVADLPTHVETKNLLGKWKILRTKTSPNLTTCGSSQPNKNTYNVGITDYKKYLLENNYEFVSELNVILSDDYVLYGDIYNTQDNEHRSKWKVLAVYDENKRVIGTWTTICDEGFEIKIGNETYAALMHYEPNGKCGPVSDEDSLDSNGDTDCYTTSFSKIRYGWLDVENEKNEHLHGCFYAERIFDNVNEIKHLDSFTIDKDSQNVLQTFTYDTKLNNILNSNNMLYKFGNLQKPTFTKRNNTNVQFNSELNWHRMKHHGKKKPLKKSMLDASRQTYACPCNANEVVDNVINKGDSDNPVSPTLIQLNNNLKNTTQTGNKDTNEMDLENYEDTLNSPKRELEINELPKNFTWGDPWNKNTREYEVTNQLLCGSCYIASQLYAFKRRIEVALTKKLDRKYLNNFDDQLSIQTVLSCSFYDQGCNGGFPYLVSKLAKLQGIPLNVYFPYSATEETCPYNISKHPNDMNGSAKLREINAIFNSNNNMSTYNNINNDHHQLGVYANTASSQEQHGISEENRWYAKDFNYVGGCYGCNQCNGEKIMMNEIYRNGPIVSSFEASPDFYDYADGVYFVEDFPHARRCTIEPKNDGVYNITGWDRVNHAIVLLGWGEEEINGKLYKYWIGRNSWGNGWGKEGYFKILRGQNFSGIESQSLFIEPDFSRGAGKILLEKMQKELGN
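Note: 30 min substrate incubation versus DMSO and 10 µM JCP410 controls.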

| SMILES | % Inhibition @ 10 uM [%] |
| --- | --- |
| CCc1nc2ccc(C(=O)NC(C)Cc3ccco3)cc2nc1CC (stereo not shown) | -0.0309 |
| O=C(CCCN1C(=O)c2ccccc2C1=O)NC(c1ccccc1)C1CCCC1 (stereo not shown) | -13 |
| O=C(Nc1ccc(OC(F)F)c(Cl)c1)C12CC3CC(C1)CC(n1cncn1)(C3)C2 | -2.32 |
| COCCN1C(=O)c2oc3cc(C)c(C)cc3c(=O)c2C1c1ccc(SC)cc1 (stereo not shown) | -1.11 |
| Cc1ccc(-c2cc(C(=O)N3CCN(C(=O)c4ccco4)CC3)[nH]n2)cc1C | 4.6 |
| O=C(COc1cccc(Br)c1)Nc1ccc2c(c1)OCO2 | -7.61 |
| COc1ccc(CNc2nc(-c3ccc(Cl)cc3)nn2C(=O)c2ccco2)cc1 | -6.71 |
| Cc1ccc2nsnc2c1S(=O)(=O)N1CCN(C(=O)C2CCCO2)CC1 (stereo not shown) | 0.163 |
| OCCN1CCN(c2ncccn2)CC1 | -0.267 |
| CN1CCN(C(=O)C23CC4CC(C)(CC(C)(C4)C2)C3)CC1 | -3.42 |
| O=C(/C=C/c1ccccc1Cl)NCc1ccco1 | 1.83 |
| COc1ccc(NC(=O)CN(c2cc(C)ccc2C)S(=O)(=O)c2ccccc2)cc1OC | -7.28 |
| CCc1cccc(C)c1NC(=O)CCCOc1ccccc1OC | -3.92 |
| c1nc(NCc2ccc3c(c2)OCO3)c2nc[nH]c2n1 | -7.15 |
| Cn1c(C(=O)O)c(CNCCc2cccs2)c2ccccc21 | -3.21 |
| O=C(CSCc1cnn(-c2ccccc2)c1-n1cccc1)NC1CCCCCC1 | 3.87 |
| Cc1cc(Cl)ccc1OCC(=O)Nc1ccc(S(=O)(=O)N2CCc3ccccc32)cc1 | -4.01 |
| CCC(Cc1ccccc1)NC(=O)C1CCN(S(=O)(=O)c2c(C)noc2C)CC1 (stereo not shown) | -4.46 |
| Cc1ccc(N(CC(=O)N2CCc3ccccc3C2)S(C)(=O)=O)cc1 | -1.24 |
| O=C(CCCOc1ccc(Cl)cc1Cl)Nc1cc(C(F)(F)F)ccc1Cl | -5.32 |
| COc1ccc(CNCc2c(C(=O)O)c(C)n(Cc3ccc(C)cc3)c2C)cc1OC | -3.67 |
| Cc1nc2c(C)c(-c3ccccc3)nn2c(C)c1Cl | 6.18 |
| COC(=O)C1=C(C)NC(=O)CC1c1ccc(Cl)c(Cl)c1 (stereo not shown) | 5.04 |
| CC12CC1(C)C(=O)N(c1cc(Cl)cc(Cl)c1)C2=O (stereo not shown) | 1.48 |
| CCOC(=O)c1ccc2c(c1)C1CN(C)CCC1N2CC(F)(F)F (stereo not shown) | -1.66 |

| SMILES | % Inhibition @ 10 uM [%] |
| --- | --- |
| CCc1ccc(C2c3c(-c4ccccc4O)n[nH]c3C(=O)N2CCOC)cc1 (stereo not shown) | 0.366 |
| FC(F)Oc1ccc(C2C=C(c3ccc(Cl)cc3)Nc3nnnn32)cc1 (stereo not shown) | -1.62 |
| COc1cccc(-c2nc(-c3ccc(C)cc3)no2)c1 | -4.03 |
| CC(C)C[C@H](NC(=O)c1cccc(-c2cccnc2)c1)C(=O)NCC#N | -8.81 |
| O=C1c2ccccc2-c2[nH]nc3c(S(=O)(=O)O)ccc1c23 | 2.47 |
| Cc1nnc(-c2ccccc2O)n1-c1ccccc1 | 3.82 |
| COc1ccc(C(=O)N2CCN(Cc3ccc(F)cc3)CC2)cc1OC | -5.4 |
| CC1CCN(c2nc3c(c(=O)n(C)c(=O)n3C)n2CC(=O)c2ccc(Br)cc2)CC1 | -3.09 |
| COc1ccc(-n2c(C)cc(=O)c3c2CC(C)(C)CC3=O)cc1 | -5.23 |
| CCN1CCN(C2=NC(=O)/C(=C/c3ccc(O)cc3)S2)CC1 | -4.4 |
| COc1ccc(-c2cc(C(F)F)n3ncc(C(=O)NC4CCCCC4)c3n2)cc1 | 0.778 |
| CC(Oc1ccc(Cl)cc1Cl)C(=O)Nc1ccc2c(c1)OCCO2 (stereo not shown) | -1.24 |
| CCCCOc1ccc(C(=O)Nc2ccc(N3CCN(C)CC3)cc2)cc1 | 0.52 |
| C=CCN(CC=C)C(=O)/C=C/c1ccccc1 | 0.317 |
| Cc1nn(-c2ccccc2)c2c1C(c1cccc3ccccc13)C(C#N)=C(N)O2 (stereo not shown) | 2.69 |
| O=C(Cc1ccccc1)Nc1cccc(O)c1 | 5.25 |
| Nc1nc(CN2c3cccc4cccc(c34)S2(=O)=O)nc(N2CCCCC2)n1 | 3.24 |
| O=C(NC1CCCCC1)c1ccc(O)nn1 | 2.29 |
| O=C1CS/C(=N\c2ccccc2O)N1c1ccccc1O | -6.79 |
| CCn1c2ccccc2c2cc(NS(=O)(=O)CC)ccc21 | -0.173 |
| CC1=C(c2ccc(C)cc2)S(=O)(=O)N=C1NCCCN1CCc2ccccc2C1 | -1.08 |
| Cc1cccc(C)c1NC(=O)C(C)Sc1ccccc1 (stereo not shown) | 2.38 |
| NC(=O)COc1ccc(-c2noc(COc3ccccc3)n2)cc1 | -8.55 |
| CCN(c1ccccc1)S(=O)(=O)c1ccc(NC(=O)CCc2ccccc2)cc1 | -0.132 |
| CCC(C)Oc1ccc(/C=C2/NC(=O)NC2=O)cc1OC (stereo not shown) | 3.8 |

| SMILES | % Inhibition @ 10 uM [%] |
| --- | --- |
| CN1CCN(C(=O)c2cc3ccccc3oc2=O)CC1 | -3.27 |
| CSc1ccc(C2C(C#N)=C(N)Oc3[nH]nc(-c4ccc(C)cc4)c32)cc1 (stereo not shown) | 2.38 |
| CCOC(=O)c1c(NC(=O)C(C)Oc2ccc(Cl)c(C)c2)sc(C(C)=O)c1C (stereo not shown) | 11.1 |
| O=C(NCC1CCCO1)c1noc2c1CSc1ccccc1-2 (stereo not shown) | 19.3 |
| CCC/N=c1\c(NC(=O)c2cc(OC)c(OC)c(OC)c2)c(O)oc2ccccc12 | 1.75 |
| CCN(CC)C(=O)Cn1cnc2sc(C(=O)NCc3ccccc3Cl)c(C)c2c1=O | -2.87 |
| CCc1ccc(C2CC(=O)N=C(NC(=O)c3ccc(OC(F)F)cc3)N2)cc1 (stereo not shown) | 0.0654 |
| O=C1CCCC2=C1C(c1ccccc1OCc1ccccc1F)C1=C(O)CCCC1=N2 (stereo not shown) | 0.147 |
| CCO/C(O)=C1\C(C)=NC2=C(C(=O)CCC2)C1c1ccc(OC)c(OC)c1 (stereo not shown) | 3.24 |
| CC(=O)Nc1cccc(N2C(=O)c3ccc(Br)cc3C2=O)c1 | -0.185 |
| Cc1ccc(-n2nnc(-c3nsc(NC(=O)c4ccccc4C)n3)c2C)cc1 | -1.38 |
| COc1cc(OC)c(OC)cc1C=C1C(=O)NC(=S)NC1=O | 0.177 |
| O=C(NCc1noc2ccccc12)Nc1ccccn1 | -6.51 |
| CC1Nc2nc3ccccc3n2C(c2cccc(F)c2)=C1C(=O)c1ccccc1 (stereo not shown) | -2.5 |
| CC(C)(C)c1ccc(C(=O)n2nc(-c3cccnc3)nc2NCc2cccs2)cc1 | 3.81 |
| OC12CCCCC1C1(O)CCCCC1C1(CCCCC1)O2 (stereo not shown) | 3.25 |
| CCCCCn1c(CN2CCN(CCO)CC2)nc2c1c(=O)n(C)c(=O)n2C | -5.1 |
| COc1ccc(OC)c(NC(=O)C(C)Oc2ccc(C)cc2)c1 (stereo not shown) | 4.39 |
| Cn1nc(C(=O)N2CCN(c3ccccn3)CC2)c2c1-c1ccccc1SC2 | 3.3 |
| CCN(CC)S(=O)(=O)c1ccc(S(=O)(=O)N(Cc2ccccn2)Cc2ccco2)cc1 | 2.05 |
| Cc1ccc(SCC(=O)Nc2cccc(C)c2)cc1 | 0.851 |
| CCN(CC)CCSc1nc(O)c(C)c(O)n1 | -7.46 |
| COc1ccc(C2C3=C(Nc4ncnn42)c2ccccc2OC3c2ccccc2OC)cc1 (stereo not shown) | -1.62 |
| CCc1ccccc1N(CC(=O)NC(C)c1ccccc1)S(C)(=O)=O (stereo not shown) | -5.67 |
| O=C(CNS(=O)(=O)c1cc(Cl)ccc1Cl)Nc1ccc2c(c1)OCCO2 | -4.14 |

| SMILES | % Inhibition @ 10 uM [%] |
| --- | --- |
| COCCCN(Cc1ccco1)C(=O)c1oc(=O)c2ccccc2c1-c1ccccc1 | -6.67 |
| CCOC(=O)C1=C(C)NC(=O)NC1c1c(O)ccc2ccccc12 (stereo not shown) | -2.03 |
| COc1ccc(-c2cc(C(F)F)n3ncc(C(=O)NCc4cnn(C)c4C)c3n2)cc1 | -3.53 |
| CC1CN(C(=O)Cn2cc(S(=O)(=O)Cc3ccccc3Cl)c3ccccc32)CC(C)O1 (stereo not shown) | 1.66 |
| O=C1NN=C(Cc2ccccc2)C1c1ccccc1 (stereo not shown) | -1.65 |
| COCCNc1nc2c(S(=O)(=O)c3ccccc3)nnn2c2ccccc12 | -10.5 |
| CC(CN(C)CCN(C)C)c1ccccc1 (stereo not shown) | -2.02 |
| O=[N+]([O-])c1ccc(N2CCN(Cc3ccc(Cl)cc3Cl)CC2)cc1 | 1.55 |
| CC(C)(CO)Nc1cnc(O)nc1O | 0.032 |
| CC1CCCCN1C(=O)c1cc2nc(-c3cccs3)cc(C(F)(F)F)n2n1 (stereo not shown) | -1.99 |
| O=C1CC(c2cccc(Oc3ccccc3)c2)C2=C(CC(c3cccs3)CC2=O)N1 (stereo not shown) | -2.24 |
| CCCOc1cccc(OCC(=O)Nc2ccc(Br)cc2)c1 | 3.66 |
| Cc1cccn2c(=O)c3cc(C(=O)NC4CCCCC4)c(=N)n(CCN4CCOCC4)c3nc12 | 1.97 |
| O=C(O)Cn1c(SCc2ccccc2)nc2ccccc21 | 4.66 |
| Cc1ccc(CNCc2c(C(=O)O)n(Cc3ccc(Cl)cc3)c3ccccc23)o1 | 0.335 |
| COCCNc1ncnc2c1cnn2-c1ccc(C)cc1C | 8.64 |
| Cn1c(NC(=O)Cn2nc(C(F)(F)F)cc2C2CC2)nc2ccccc21 | -0.545 |
| COc1ccc(-n2cc(Cl)nc(N3CCOCC3)c2=O)cc1 | 1.43 |
| C=CCn1c(=O)c(C(=O)Nc2nccs2)c(O)c2ccccc21 | -1.96 |
| COC(=O)c1c[nH]n2c(NC3CCCCC3)c(-c3cccc(C)c3)nc12 | 5.89 |
| CC(C)C[C@H](NC(=O)c1ccc(-c2ccccc2Cl)c(Cl)c1)C(=O)NCC#N | -3.48 |
| Cc1ccc2c(c1)C(=O)N(Cc1ccc3c(c1)OCO3)C2=O | -10.3 |
| CCOc1ccc(NC(=O)CCC2CCCC2)cc1 | 7.48 |
| OC(CN1CCCCC1)Cn1c2c(c3ccccc31)CCCC2 (stereo not shown) | 3.32 |
| c1ccc2c(CNc3ccc4c(c3)OCO4)c3ccccc3cc2c1 | -3.6 |
